Results from paper PMC4336329 (PLoS ONE, 2015).
Out of some 310,000 compounds screened, about 2,200 (0.71%) showed an effect of 50% or more. Effects have a minus sign here. Some of the results follow.

Each compound was assayed against human ether-à-go-go-related gene (hERG) potassium channel (human, UniProt Q12809) (assay: primary screen, population patch clamp on CHO cells stably expressing hERG).
Chain of human ether-à-go-go-related gene (hERG) potassium channel (Q12809 whole entry, looked up): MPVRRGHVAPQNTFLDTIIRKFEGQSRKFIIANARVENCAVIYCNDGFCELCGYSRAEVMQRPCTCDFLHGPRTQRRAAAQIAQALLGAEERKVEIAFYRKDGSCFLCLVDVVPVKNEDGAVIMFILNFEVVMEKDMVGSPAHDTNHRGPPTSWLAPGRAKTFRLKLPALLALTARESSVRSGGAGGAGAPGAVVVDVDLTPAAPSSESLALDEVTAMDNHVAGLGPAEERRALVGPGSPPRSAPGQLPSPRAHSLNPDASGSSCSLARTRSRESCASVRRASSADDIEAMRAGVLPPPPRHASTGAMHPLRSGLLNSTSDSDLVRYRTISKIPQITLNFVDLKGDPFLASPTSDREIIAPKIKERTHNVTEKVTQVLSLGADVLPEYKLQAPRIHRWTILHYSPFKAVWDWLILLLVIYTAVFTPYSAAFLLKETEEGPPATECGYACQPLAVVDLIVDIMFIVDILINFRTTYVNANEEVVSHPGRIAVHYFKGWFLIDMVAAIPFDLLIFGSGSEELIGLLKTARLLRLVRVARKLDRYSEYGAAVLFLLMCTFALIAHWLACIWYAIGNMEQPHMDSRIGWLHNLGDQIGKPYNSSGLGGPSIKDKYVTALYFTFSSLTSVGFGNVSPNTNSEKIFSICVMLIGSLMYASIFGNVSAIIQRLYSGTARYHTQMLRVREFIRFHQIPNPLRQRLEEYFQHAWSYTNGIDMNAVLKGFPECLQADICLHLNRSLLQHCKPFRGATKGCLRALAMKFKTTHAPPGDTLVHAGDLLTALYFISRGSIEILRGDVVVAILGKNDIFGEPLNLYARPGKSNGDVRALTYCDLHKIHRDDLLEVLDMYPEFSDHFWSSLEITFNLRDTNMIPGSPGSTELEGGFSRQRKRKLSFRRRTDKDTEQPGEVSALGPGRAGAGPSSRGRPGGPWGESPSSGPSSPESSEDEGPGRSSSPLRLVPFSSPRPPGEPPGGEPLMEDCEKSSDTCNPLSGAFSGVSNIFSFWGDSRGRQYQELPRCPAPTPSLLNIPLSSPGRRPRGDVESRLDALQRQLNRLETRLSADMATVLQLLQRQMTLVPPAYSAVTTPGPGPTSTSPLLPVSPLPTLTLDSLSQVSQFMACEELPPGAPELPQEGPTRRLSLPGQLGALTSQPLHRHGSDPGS

SMILES	hERG current change (%, negative = inhibition) at 1uM [%]
CCCn1ncc(CN2CCC(n3nccc3NC(=O)c3ccccc3OC)CC2)c1C	-73.2
C=CCNc1ccc(N2C(=O)C3CCC(C)CC3C2=O)cc1[N+](=O)[O-] (stereo not shown)	4.92
Cc1ccc(NC(=S)N(CCN(C)C)C(C)c2ccco2)cc1Cl (stereo not shown)	0.0693
Cc1cccc(CSC2=NCCN2C(=O)c2ccco2)c1	11.2
Cc1ccc(-c2c[n+](CC(=O)Nc3ccc(C)cc3C)c3n2CCC3)cc1.[Cl-]	-1.1
COc1ccc2nc3oc(C(=O)N4CCCCC4)cc3cc2c1	8.21
N#Cc1cc(C(=O)c2cc(F)ccc2O)cn(-c2nccs2)c1=O	4.94
COC(=O)c1ccccc1NC(=O)C1CCN(S(C)(=O)=O)CC1	10
COc1ccc(N2CCN(C(=O)CN3C(=O)C4CC=CCC4C3=O)CC2)cc1 (stereo not shown)	15.7
COc1ccccc1N1CCN(Cc2cccs2)CC1	-1.28
Cc1ccc(SC(CC(=O)c2ccc(C(C)(C)C)cc2)C(=O)O)cc1 (stereo not shown)	11.1
CC(C)c1ccc(N(CC(=O)NCc2ccco2)C(=O)CCC(=O)Nc2ccccn2)cc1	7.8
CCCC(=O)NC(=S)Nc1cccc(Cl)c1N1CCCCC1	15.7
O=C(Nc1ccc(NC(=O)C2CC2)cc1)c1cccs1	1.63
Cc1ccccc1C(=O)N1CCC(C(=O)NN2C(=O)NC3(CCCCC3)C2=O)CC1	11.8
Cc1ccc(S(=O)(=O)N2CCN(C(=O)CN3CCOCC3)C2C(C)C)cc1 (stereo not shown)	-3.71
COC(=O)c1ccc(CN2C(=O)c3ccccc3S2(=O)=O)cc1	-1.81
FC(F)(F)c1cnc(Oc2ccccc2-c2nnco2)c(Cl)c1	12
O=c1[nH]c2c(c(=O)n1C1CCCCC1)CCC2	10.6
C[C@H](CCC(=O)O)[C@H]1CC[C@H]2[C@@H]3[C@H](O)C[C@@H]4C[C@H](O)CC[C@]4(C)[C@H]3CC[C@]12C	7.13

SMILES	hERG current change (%, negative = inhibition) at 1uM [%]
Cc1cccc(C(=O)Nc2nnc(S(=O)(=O)N(C)Cc3ccco3)s2)c1	10.3
CN(CCc1ccccn1)c1ccc([N+](=O)[O-])cn1	11.7
CCOC(=O)CN1CC23C=CC(O2)C(C(=O)Nc2cc(OC)ccc2OC)C3C1=O (stereo not shown)	0.194
CCOc1ccc(CCNC(=O)CCC(=O)Nc2ccc3nc(N4CCN(C)CC4)cc(C)c3c2)cc1OCC	15.5
O=C1[C@H]2CC3CCC2(O3)[C@@H]2OCCCN12 (stereo partly shown)	2.7
CSc1ccccc1NC(=O)c1ccco1	5.93
O=C(OCc1nnc(-c2ccccc2)o1)c1ccc2c(c1)OCO2	9.58
NC(=O)C1CCN(C(=O)C2CCC(=O)N(Cc3ccc(Cl)cc3)C2)CC1 (stereo not shown)	17.2
OCCC1CN(C2CCC2)CCN1Cc1ccc(F)c(F)c1 (stereo not shown)	12.1
NC(=S)C1COc2ccccc2O1 (stereo not shown)	12.9
O=C(NCc1cccs1)c1ccc2ccccc2n1	6.52
COc1ccc(CNC(=O)C(c2ccccc2F)N(C(=O)c2csnn2)C2CC2)cc1 (stereo not shown)	7.44
CC1CCc2sc(C(=O)NCc3ccccn3)cc2C1 (stereo not shown)	9.75
CCOC(=O)c1c[nH]c2c(Cl)c(Cl)ccc2c1=O	15.2
COc1ccccc1N(C)S(=O)(=O)c1ccc(C(=O)N2CCCc3ccccc32)cc1	9.64
Cc1cc2oc(=O)sc2cc1NS(=O)(=O)c1ccccc1	19
Cc1cccc(Cn2cnc3c(nnn3Cc3ccc(Cl)cc3)c2=O)c1	11.6
COc1ccccc1-c1nnc(SCC(=O)NC2CCCCC2)o1	-6.28
CC(=O)c1c(C)[nH]c(C(=O)OCc2c(F)cccc2Cl)c1C	7.25
CCCCC1=C([O-])C2N=CC=CC2=[N+](c2ccccn2)C1=O (stereo not shown)	6.35

SMILES	hERG current change (%, negative = inhibition) at 1uM [%]
O=[N+]([O-])c1cc(Cl)ccc1Oc1ccc(-c2nnco2)cc1	17.4
COc1ccc(-c2nn(-c3ccccc3)cc2C(=O)N(C)CC(=O)Nc2ccc(N3CCOCC3)cc2)cc1	10.3
CCSc1nnc(NC(=O)CSc2nnc(CNC(=O)c3ccccc3F)o2)s1	6.65
N#Cc1ccc(Sc2ccccn2)c([N+](=O)[O-])c1	-5.24
CCOC(=O)C(Cc1ccc(O)cc1)NC(=O)CCc1c[nH]c2ccccc12 (stereo not shown)	12.9
O=C(NCc1ccccc1)C(c1cccs1)N(Cc1cccs1)C(=O)c1cnccn1 (stereo not shown)	4.6
C=CCc1cccc(CNc2nc3ccccc3n2CC)c1O	9.56
CCN1C2=NCCCN2c2ccccc21.Cl	2.9
COc1ccc(-c2csc(NC(=O)CN3C(=O)NC4(CCCC4)C3=O)n2)cc1OC	22.1
COCCn1cnnc1SCC(=O)Nc1cccc(S(=O)(=O)N2CCCCC2)c1	1.55
Cc1cc(C(F)(F)F)nn1CC(=O)NCc1ccccc1	-2.12
CN(C)S(=O)(=O)c1cccc(COc2ccccc2C(=O)Nc2ccccc2)c1	1.14
CCCCOc1ccc(NC(=O)CSCC(=O)OCC)cc1	18.1
CCOC(=O)C1CCN(S(=O)(=O)c2ccccc2)CC1	10.6
Cc1ccc(C(=O)Nc2sc3c(c2C(=O)NCc2ccco2)CCCC3)cc1	13.2
N/N=C(\c1ccccc1)c1cc(Br)ccc1N	10.5
C1CCN=C(NC23CC4CC(CC(C4)C2)C3)CC1	10.1
CCOC(=O)/C=C/[C@H]1CC(c2ccccc2)(c2ccccc2)CO1	12.5
